# Where “and” joins values, the source holds several entries; their conditions need not be identical. Identical values can stand only once. Inconclusive results, whose numbers are uncertain, are shown with a selection of clear calls. Potencies beside an inconclusive call are fits to weak or partial responses and may not hold up. More than one record can exist for a structure, and the calls need not agree. Calls of active or inactive are those of the source. The call rests on the fitted dose curve; in most records, active means well fitted curve in the direction sought with a large enough effect in the repeat runs; inconclusive means weak or mixed curves; inactive means no such curve, though single readings can be large; an effect the other way counts as inactive or inconclusive.
# Experiments:
# [1] = A CellTox Green Cytotoxicity Assay to monitor cytotoxicity in HepG2 cells - 0 hour (AID 1224882); further: nearly all actives have a fitted effect of over 35% in size; on Cytotoxicity: on the % scale 0 is the no-effect control and ±100 the full control effect
# In short: (§1)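 Fluorescent DNA-binding dye, 600 HepG2 cells/well, 5 h preincubation then compound in DMSO; same plates read at 0–40 h, 37 C.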
# [2] = A CellTox Green Cytotoxicity Assay to monitor cytotoxicity in HepG2 cells - 32 hour (AID 1224883); further: nearly all actives have a fitted effect of over 50% in size
# In short: as §1
# [3] = A CellTox Green Cytotoxicity Assay to monitor cytotoxicity in HEK293 cells - 8 hour (AID 1224884); further: nearly all actives have a fitted effect of over 35% in size
# In short: (§2)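 Homogeneous no-lysis format: HEK293 cell suspension mixed with CellTox Green reagent, seeded, incubated 5 h at 37 C/5% CO2, then dosed by pintool with compound in DMSO.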
# [4] = qHTS RealTime-Glo MT Cell Viability Assay in HepG2 cells - 16 hour (AID 1224885); further: nearly all actives have a fitted effect of over 50% in size
# In short: (§3)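 Viability was tracked continuously by NanoLuc luminescence from prosubstrate reduced by living HepG2 cells, at successive time points over 40 h of compound exposure. Cells with reagent were preincubated 5 h at 37 °C before compound addition.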
# [5] = qHTS RealTime-Glo MT Cell Viability Assay in HEK293 cells - 24 hour (AID 1224886); further: nearly all actives have a fitted effect of over 50% in size
# In short: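 Viability tracked continuously by luminescence as live cells reduce a prosubstrate for NanoLuc; HEK293 cells preincubated 5 h, compound-treated at 37 C, and read at 0, 8, 16, 24, 32 and 40 h.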
# [6] = qHTS RealTime-Glo MT Cell Viability Assay in HEK293 cells - 8 hour (AID 1224887); further: nearly all actives have a fitted effect of over 50% in size
# In short: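 Measured as luminescence from the same continuously cultured HEK293 wells at successive time points (0, 8, 16, 24, 32, 40 h) after compound addition. Reagent present from seeding; dosing at 5 h; incubation 37 C.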
# [7] = A CellTox Green Cytotoxicity Assay to monitor cytotoxicity in HepG2 cells - 8 hour (AID 1224890); further: nearly all actives have a fitted effect of over 45% in size
# In short: as §1
# [8] = A CellTox Green Cytotoxicity Assay to monitor cytotoxicity in HEK293 cells - 16 hour (AID 1224888); further: nearly all actives have a fitted effect of over 35% in size
# In short: as §2
# [9] = qHTS RealTime-Glo MT Cell Viability Assay in HepG2 cells - 0 hour (AID 1224889); further: nearly all actives have a fitted effect of over 50% in size
# In short: as §3
# [10] = qHTS assay to identify small molecule antagonists of the estrogen receptor alpha (ER-alpha) signaling pathway using the BG1 cell line in the presence of 0.1 nM 17-beta-estradiol - cell viability counter screen (AID 1259241); further: nearly all actives have a fitted effect of over 40% in size
# In short: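 Measures cytotoxicity alongside the ER-alpha antagonist readout: VM7Luc4E2 cells, charcoal-stripped serum, 0.1 nM 17beta-estradiol final, 22 hr compound incubation at 37C, CellTiter-Fluor fluorescence.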
# Potency means the concentration at half of the fitted maximal effect; tags describe the fitted curve by direction and shape.
smiles,measurement,setting,value
CN(C)c1cccc(O)c1,Potency,[1],"inconclusive: 54.9 µM [activator, partial curve]"
same,Potency,[2],"inactive and inconclusive: 54.9 µM [activator, single point]"
Nc1cc(Cl)c(-c2cc(Cl)c(N)cc2Cl)cc1Cl,Potency,[1],"inconclusive: 54.9 µM [activator, single point]"
same,Potency,[2],active: 17.4 µM and active: 54.9 µM
same,Potency,[3],"inconclusive: 38.9 µM [activator, partial curve]"
same,Potency,[4],"inconclusive: 48.9 µM [cytotoxic, partial curve, poor fit] and inconclusive: 49 µM [cytotoxic, partial curve]"
same,Potency,[5],"inconclusive: 1.55 µM [cytotoxic, full curve]"
same,Potency,[6],"inconclusive: 54.9 µM [cytotoxic, single point]"
same,Potency,[7],"inconclusive: 21.9 µM [activator, partial curve]"
CCCCCCCCCCCCN1CCCC1=O,Potency,[2],"inconclusive: 54.9 µM [activator, single point]"
same,Potency,[3],"inconclusive: 54.9 µM [activator, single point]"
same,Potency,[4],"inconclusive: 54.9 µM [cytotoxic, single point]"
same,Potency,[5],"inconclusive: 54.9 µM [cytotoxic, single point]"
same,Potency,[6],"inconclusive: 61.6 µM [cytotoxic, single point]"
same,Potency,[8],"inconclusive: 54.9 µM [activator, single point]"
same,Potency,[7],"inconclusive: 54.9 µM [activator, single point]"
O=C(c1ccc(O)cc1)c1ccc(O)cc1O,Potency,[1],"inconclusive: 54.9 µM [activator, single point]"
same,Potency,[5],"inconclusive: 21.9 µM [cytotoxic, partial curve, poor fit]"
same,Potency,[8],inactive
CCCCCCO,Potency,[2],"inconclusive: 61.7 µM [activator, single point]"
CC(C)(C)c1ccc(O)c(C(C)(C)C)c1,Potency,[2],active: 48.8 µM and active: 43.6 µM
same,Potency,[3],"inconclusive: 34.7 µM [activator, partial curve, poor fit]"
same,Potency,[4],"inconclusive: 48.8 µM [cytotoxic, single point] and inconclusive: 43.6 µM [cytotoxic, partial curve]"
same,Potency,[5],"inconclusive: 24.5 µM [cytotoxic, partial curve, poor fit]"
same,Potency,[6],"inconclusive: 21.9 µM [cytotoxic, full curve]"
same,Potency,[8],active: 24.4 µM and active: 34.7 µM
same,Potency,[7],active: 48.8 µM and active: 49 µM
CCOc1nc2cccc(C(=O)OC(C)OC(=O)OC3CCCCC3)c2n1Cc1ccc(-c2ccccc2-c2nn[nH]n2)cc1 (configuration not stated),Potency,[1],"inconclusive: 48.9 µM [activator, partial curve, poor fit]"
same,Potency,[3],"inconclusive: 34.6 µM [activator, partial curve]"
same,Potency,[4],"inconclusive: 43.6 µM [cytotoxic, single point]"
same,Potency,[5],active: 9.76 µM
same,Potency,[6],active: 8.7 µM
same,Potency,[8],active: 34.6 µM
same,Potency,[9],"inconclusive: 38.9 µM [cytotoxic, partial curve]"
same,Potency,[7],"inconclusive: 48.9 µM [activator, single point]"
CC(C)=CCNc1ncnc2c1ncn2[C@@H]1O[C@H](CO)[C@@H](O)[C@H]1O,Potency,[1],"inconclusive: 33.8 µM [activator, single point]"
same,Potency,[7],"inconclusive: 30.1 µM [activator, single point]"
CCCCOCCOCCOC(C)=O,Potency,[2],"inconclusive: 54.9 µM [activator, single point]"
COC(=O)c1c(Cl)c(Cl)c(C(=O)OC)c(Cl)c1Cl,Potency,[1],active: 0.138 µM
same,Potency,[2],"inconclusive: 0.0692 µM [activator, full curve, poor fit]"
same,Potency,[3],"inconclusive: 21.9 µM [activator, single point]"
same,Potency,[5],"inconclusive: 43.6 µM [cytotoxic, partial curve] and inconclusive: 19.5 µM [cytotoxic, full curve]"
same,Potency,[6],"inconclusive: 38.9 µM [cytotoxic, partial curve, poor fit] and inconclusive: 38.9 µM [cytotoxic, partial curve]"
same,Potency,[8],"inconclusive: 38.9 µM [activator, partial curve]"
CCCCCCCCCCCCCCCC[N+](C)(C)Cc1ccccc1,Potency,[1],inactive
same,Potency,[6],active: 50.5 µM and active: 49.8 µM
same,Potency,[8],active: 50.5 µM and active: 44.4 µM and active: 23.9 µM
same,Potency,[9],"inconclusive: 63.6 µM [cytotoxic, partial curve, poor fit]"
Oc1ccc2cc(SSc3ccc4cc(O)ccc4c3)ccc2c1,Potency,[2],"inconclusive: 21.9 µM [activator, full curve, poor fit]"
same,Potency,[3],"inconclusive: 49 µM [activator, single point] and inconclusive: 21.9 µM [activator, single point]"
same,Potency,[4],"inconclusive: 54.9 µM [cytotoxic, single point]"
same,Potency,[5],"inconclusive: 54.9 µM [cytotoxic, single point]"
same,Potency,[6],"active: 39 µM and inconclusive: 24.5 µM [cytotoxic, single point]"
same,Potency,[8],"inconclusive: 49 µM [activator, partial curve] and inconclusive: 21.9 µM [activator, partial curve, poor fit]"
same,Potency,[7],"inconclusive: 21.9 µM [activator, single point]"
Clc1ccc(C(Cn2ccnc2)OCc2c(Cl)cccc2Cl)c(Cl)c1 (configuration not stated),Potency,[1],"inconclusive: 10.7 µM [activator, single point]"
same,Potency,[2],"inconclusive: 10.7 µM [activator, single point]"
same,Potency,[6],"inconclusive: 19 µM [cytotoxic, partial curve]"
same,Potency,[9],"inconclusive: 26.8 µM [cytotoxic, partial curve, poor fit]"
same,Potency,[7],"inconclusive: 10.7 µM [activator, single point]"
CCCCCCCCNC(C)C(O)c1ccc(SC(C)C)cc1 (configuration not stated),Potency,[1],inactive
same,Potency,[4],active: 15.1 µM
same,Potency,[6],active: 10.7 µM
same,Potency,[8],active: 19 µM
same,Potency,[9],"inconclusive: 21.3 µM [rising, partial curve]"
same,Potency,[7],active: 21.3 µM
same,Potency,[10],"inconclusive: 33.5 µM [cytotoxic, single point]"
C=C1C(CCl)(CCl)C2(Cl)C(Cl)C(Cl)C1(Cl)C2(Cl)Cl (configuration not stated),Potency,[2],"inconclusive: 54.3 µM [activator, single point]"
same,Potency,[3],"inconclusive: 54.3 µM [activator, single point]"
same,Potency,[4],"inconclusive: 60.9 µM [cytotoxic, partial curve, poor fit]"
same,Potency,[5],"inconclusive: 48.4 µM [cytotoxic, single point]"
same,Potency,[6],active: 43.1 µM
same,Potency,[8],"inconclusive: 54.3 µM [activator, single point]"
O=C(Oc1cccc2cccnc12)c1ccccc1,Potency,[2],active: 0.338 µM
On1ccccc1=S,Potency,[2],active: 0.385 µM
same,Potency,[3],inactive
same,Potency,[4],"inconclusive: 0.544 µM [cytotoxic, full curve]"
same,Potency,[5],active: 3.85 µM
same,Potency,[6],"inconclusive: 5.44 µM [cytotoxic, partial curve, poor fit]"
CC(C)(C)c1ccc(C(O)CCCN2CCC(C(O)(c3ccccc3)c3ccccc3)CC2)cc1 (configuration not stated),Potency,[1],inactive
same,Potency,[2],active: 5.35 µM
same,Potency,[3],active: 21.3 µM
same,Potency,[6],active: 8.49 µM
same,Potency,[10],"inconclusive: 33.5 µM [cytotoxic, single point]"
CC(C)(C)c1ccc(O)c(O)c1,Potency,[1],"inconclusive: 54.9 µM [activator, single point]"
same,Potency,[2],"inconclusive: 61.6 µM [activator, partial curve, poor fit]"
same,Potency,[4],"inconclusive: 50.7 µM [cytotoxic, single point] and inconclusive: 24.5 µM [cytotoxic]"
same,Potency,[5],active: 22.6 µM and active: 13.8 µM
same,Potency,[6],active: 40.2 µM and active: 45.3 µM
CC/C(=C(\c1ccccc1)c1ccc(OCCN(C)C)cc1)c1ccccc1,Potency,[1],inactive
same,Potency,[3],active: 44 µM [middle of 5 runs]
same,Potency,[5],active: 24.5 µM [middle of 5 runs]
same,Potency,[6],"inconclusive: 26.8 µM [cytotoxic, single point]"
same,Potency,[7],active: 54.9 µM [middle of 5 runs]
same,Potency,[10],"inconclusive: 68.6 µM [cytotoxic, single point]"
CCN=c1cc2oc3cc(NCC)c(C)cc3c(-c3ccccc3C(=O)OCC)c-2cc1C,Potency,[1],active: 6.89 µM and active: 6.17 µM
same,Potency,[2],"inconclusive: 5.49 µM [activator, full curve, poor fit]"
same,Potency,[4],active: 43.5 µM and active: 24.5 µM
same,Potency,[5],active: 2.45 µM and active: 1.74 µM
same,Potency,[6],active: 17.3 µM and active: 17.4 µM
same,Potency,[8],active: 10.9 µM and active: 11 µM
CCOC(=O)N1CCC(=C2c3ccc(Cl)cc3CCc3cccnc32)CC1,Potency,[1],"inconclusive: 26.8 µM [activator, single point]"
same,Potency,[2],"inconclusive: 54.9 µM [activator, single point] and inconclusive: 23.9 µM [activator, single point]"
same,Potency,[4],"inconclusive: 49 µM [cytotoxic, single point] and inconclusive: 19 µM [cytotoxic, partial curve]"
same,Potency,[6],"active: 21.9 µM and inconclusive: 19 µM [cytotoxic, partial curve]"
same,Potency,[9],inactive
same,Potency,[7],"inconclusive: 26.8 µM [activator, single point]"

# Source: PubChem BioAssay (Tox21)
